The values that follow come from publication PMC4336329 (PLoS ONE, 2015).

In all, about 310,000 compounds went through this assay and about 14,000 (4.5%) showed an effect of 50% or more. Effects have a minus sign here. This is one part of the list.
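Note: peak tail current of the secondary pulse compared with the same well before compound.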

The target of this assay is human ether-à-go-go-related gene (hERG) potassium channel (human, UniProt Q12809). Put plainly: primary screen, population patch clamp on CHO cells stably expressing hERG.
human ether-à-go-go-related gene (hERG) potassium channel, sequence (Q12809 whole entry, looked up): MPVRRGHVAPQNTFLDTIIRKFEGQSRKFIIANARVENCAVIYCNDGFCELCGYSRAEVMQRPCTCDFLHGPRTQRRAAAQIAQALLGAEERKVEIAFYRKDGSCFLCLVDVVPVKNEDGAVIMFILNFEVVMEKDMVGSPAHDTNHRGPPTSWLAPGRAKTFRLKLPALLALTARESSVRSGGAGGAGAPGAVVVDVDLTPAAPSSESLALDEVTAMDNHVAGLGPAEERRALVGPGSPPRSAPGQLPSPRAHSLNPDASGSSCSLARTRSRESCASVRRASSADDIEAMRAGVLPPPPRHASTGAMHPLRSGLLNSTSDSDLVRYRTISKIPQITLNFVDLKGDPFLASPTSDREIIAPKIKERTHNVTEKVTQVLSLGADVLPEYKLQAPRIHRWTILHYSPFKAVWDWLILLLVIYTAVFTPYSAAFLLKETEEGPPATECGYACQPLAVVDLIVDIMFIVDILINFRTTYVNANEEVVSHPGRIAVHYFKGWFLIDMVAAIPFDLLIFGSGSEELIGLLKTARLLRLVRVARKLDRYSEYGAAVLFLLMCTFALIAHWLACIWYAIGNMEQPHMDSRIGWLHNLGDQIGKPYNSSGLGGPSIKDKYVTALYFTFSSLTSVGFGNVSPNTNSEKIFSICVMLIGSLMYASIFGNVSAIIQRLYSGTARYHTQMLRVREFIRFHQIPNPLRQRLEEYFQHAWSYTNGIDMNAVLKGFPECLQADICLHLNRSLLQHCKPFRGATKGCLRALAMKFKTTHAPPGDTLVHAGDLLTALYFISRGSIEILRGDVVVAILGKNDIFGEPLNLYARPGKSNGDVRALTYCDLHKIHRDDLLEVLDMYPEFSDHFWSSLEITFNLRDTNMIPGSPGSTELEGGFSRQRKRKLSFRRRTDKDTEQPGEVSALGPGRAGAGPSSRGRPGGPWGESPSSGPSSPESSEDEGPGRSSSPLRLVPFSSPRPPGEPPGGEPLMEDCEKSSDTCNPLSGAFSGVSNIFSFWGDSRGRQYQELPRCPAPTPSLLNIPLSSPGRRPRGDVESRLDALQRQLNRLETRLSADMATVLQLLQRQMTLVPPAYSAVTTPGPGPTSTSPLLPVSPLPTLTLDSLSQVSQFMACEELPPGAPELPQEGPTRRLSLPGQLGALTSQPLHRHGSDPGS
`COc1cccc(-c2nc(NC(C)(C)C)c3ccccc3n2)c1O`: the “hERG current change (%, negative = inhibition) at 10uM” value is reported as 2.89%.

Turning to `O=C1Nc2cc(C(=O)N3CCC4(CC3)OCCO4)ccc2NC1CSCc1cccc(F)c1` (stereo not shown), the “hERG current change (%, negative = inhibition) at 10uM” value is 2.89%. `Cc1cc(C)nc(N2CCN(C(=O)CCC(=O)Nc3nnc(C(C)C)s3)CC2)n1`: the “hERG current change (%, negative = inhibition) at 10uM” value stood at 6.81%.

`O=C(NCCc1ccccc1F)C1CCC(=O)N(Cc2ccc(Cl)cc2)C1` (stereo not shown): the “hERG current change (%, negative = inhibition) at 10uM” value is -32.5%. Then `Cc1ccc(-c2nc(NCCCO)c3ccccc3n2)cc1`, with -41.2%; and `CCc1cc(C(=O)NNC(=S)NCc2ccccc2)cs1`, with -6.47%; and `O=C1NC(Cc2c[nH]c3ccccc23)C(=O)N1Cc1ccccc1` (stereo not shown), with 6.2%. As to `Cc1ccnc(NC(=O)CCC(=O)N(CC(=O)NCc2ccccc2)Cc2ccco2)c1`, the “hERG current change (%, negative = inhibition) at 10uM” value was -15.6%. Then `CCCCNC(=O)N1CCN(Cc2cccc(F)c2)CC1`, with 4.88%.

In the case of `CC(C)(C)c1ccccc1OCC(=O)NCc1ccccc1`, the “hERG current change (%, negative = inhibition) at 10uM” value worked out at 10.5%.

`Cc1ccc2[nH]c(-c3ccccc3)cc(=O)c2c1`: the “hERG current change (%, negative = inhibition) at 10uM” value is 4.98%. As to `CC(NC(=O)c1ccco1)c1nc(-c2ccccc2)no1` (stereo not shown), the “hERG current change (%, negative = inhibition) at 10uM” value is on record as 13%. As to `OCC[C@H]1C[C@@H](O)[C@H](O)[C@@]2(Cc3ccccc3CCO2)O1`, the “hERG current change (%, negative = inhibition) at 10uM” value is on record as 7.01%.

In the case of `COc1ccc(S(=O)(=O)Oc2ccccc2C(=S)N2CCOCC2)cc1`, the “hERG current change (%, negative = inhibition) at 10uM” value was found to be 9.91%. For `CC(=O)N(c1nc(CCl)cs1)c1cccc(C)c1C` the value was 10.8%. On to `CC(=O)Oc1ccc(/C=C2/Oc3ccccc3C2=O)cc1`, for which the “hERG current change (%, negative = inhibition) at 10uM” value came to 16.1%. For the molecule `O=C1NCC(=O)N2C(c3ccccc3)c3[nH]c4ccccc4c3C[C@@H]12` (stereo partly shown), the “hERG current change (%, negative = inhibition) at 10uM” value turned out to be 3.26%.

On to `O=C(Nc1ccccc1C(=O)N1CCCCC1)c1cccs1`, for which the “hERG current change (%, negative = inhibition) at 10uM” value is -3.06%. Regarding `Cc1ccc(-c2csc(NC(=O)c3cc([N+](=O)[O-])ccc3N3CCOCC3)n2)cc1`, the “hERG current change (%, negative = inhibition) at 10uM” value worked out at 15.4%. As to `O=C1OC(c2ccccc2)/C(=C(/O)c2ccc(Cl)cc2)C1=O` (stereo not shown), the “hERG current change (%, negative = inhibition) at 10uM” value turned out to be 21.3%.

Turning to `O=C(Nc1ccccn1)C12CC3CC(C1)CC(C(=O)Nc1ccccn1)(C3)C2`, the “hERG current change (%, negative = inhibition) at 10uM” value is on record as -2.89%. On to `COc1ccc2[nH]c3c(N4CCc5ccccc5C4)ncnc3c2c1`, for which the “hERG current change (%, negative = inhibition) at 10uM” value amounted to 10.2%. Then `CSc1ccccc1NC(=O)CN(C)CC(=O)c1c(C)[nH]c2ccccc12`, with -0.896%. With `Cc1ccccc1-c1nnc(-c2ccc(Br)cc2)o1`, the “hERG current change (%, negative = inhibition) at 10uM” value was 7.83%. As to `CCOc1cc(/C=N/O)ccc1OCc1ccccc1F`, the “hERG current change (%, negative = inhibition) at 10uM” value is listed as -6%.
